The source gives no read counts; variants with many changes may rest on few reads.
B1: LINE1-full (parent)
chain: UACGUAGGUGGUUUUCCCCUGAUAGUGCUAAGGGGGCCUGGAAGUUUGGACUGGGCAGAGCUCAACACAGCGUGGCAAAGUGGCUGUGGCUAGACUGCCUCUCUGGAUUCCUCGUCACUCAGCAGGGCAUCUCUGAGAGAAAUGCC

Variants of: B1
Assay: self-cleavage, relative activity (ratio to wild type); higher = more cleavage; in vitro, sequencing; the parent is a self-cleaving ribozyme
A42G U52A U62C G80A U115A U130C A138G showed a self-cleavage of 0.
A69U C71U U73A gave a self-cleavage of 0.07.
Variant G4U U15A A43U U130C has a self-cleavage of 1.11.
U14C U15C A65G C145U gave a self-cleavage of 0.22.
A50G A77C A138U gave a self-cleavage of 0.6.
U14C U115C A138G showed a self-cleavage of 1.47.
In the case of U47C G74A A78G, the self-cleavage is reported as 0.89.
With G32A A50G U130C the self-cleavage was 0.
Variant U12G C19U U46C G114A A117G A124G U143A has a self-cleavage of 1.05.
For U104C U115A A140G, the self-cleavage was 1.31.
U39C U91A U134A gave a self-cleavage of 0.44.
Work on A92U U100C C118U yielded a self-cleavage of 1.09.
With G54A A64G U87C A138G the self-cleavage was 0.22.
U20A U45G G48U A77G U102C A124G gave a self-cleavage of 0.48.
With U39A U112A U130C the self-cleavage was 0.
With A64G U100C U130A the self-cleavage was 0.26.
G35A A79G A107C A140G showed a self-cleavage of 0.99.
In the case of U73A U100A C123U, the self-cleavage is reported as 1.52.
U115A A121U A124U gave a self-cleavage of 1.13.
For U5C G11A U12C U47A U73C G105A U115C G126A, the self-cleavage was 2.16.
For A30U A77U U102C, the self-cleavage was 0.98.
Variant U13C A43G U102A has a self-cleavage of 0.57.
U13C C18U U73C U96C U134G showed a self-cleavage of 0.
Work on U47C A69U G83A U91A G106A yielded a self-cleavage of 0.04.
Variant U23C U87C A140G has a self-cleavage of 0.
Variant U1C A6U A22U A24U U52C U96C has a self-cleavage of 0.
In the case of U104C A117G A121G, the self-cleavage is reported as 0.92.
For C28U U46A A65G U115C, the self-cleavage was 0.1.
With U23G A24G A69G the self-cleavage was 0.
In the case of U1C G33A A124U C128U, the self-cleavage is reported as 0.13.
For U20A A67U C98U U102A, the self-cleavage was 0.02.
Variant U45C A79G G88C G122A has a self-cleavage of 0.1.
Variant A30U A42G U134C has a self-cleavage of 1.67.
Work on U15A A65U U100C A142G yielded a self-cleavage of 0.23.
Variant A6G A78G C113A U119A has a self-cleavage of 0.44.
G88A U100C A142G gave a self-cleavage of 0.04.
With G11A U13C U46A G86A U132C A136G the self-cleavage was 0.06.
With U1C U119C G144A the self-cleavage was 1.13.
U29C A30U A43G gave a self-cleavage of 0.74.
Variant A2G U73C A124G has a self-cleavage of 0.77.
U13C U20C A24G showed a self-cleavage of 0.92.
U47C U73C C118U showed a self-cleavage of 1.85.
In the case of G35A U46C U100C, the self-cleavage is reported as 0.94.
In the case of U14C A69G U109A, the self-cleavage is reported as 0.
Variant U5C U46C A124G has a self-cleavage of 0.67.
For G11A U46A A65U U100C, the self-cleavage was 0.17.
With A64U U96A C103U the self-cleavage was 0.03.
Work on G4A U12C A24G U108C A129U yielded a self-cleavage of 0.
U20C A43U U47C U73A gave a self-cleavage of 1.77.
In the case of U14C A22U G41U, the self-cleavage is reported as 1.01.
Variant A59G A79G G82U G88C U102C U108C U119C has a self-cleavage of 0.
With C3U U45C C68U the self-cleavage was 0.16.
With U15A C56A C61G U62G G93U A140G the self-cleavage was 0.07.
Variant A24G A43G U112C has a self-cleavage of 1.02.
G32C A59G A64G gave a self-cleavage of 0.
A30U G49A U96C A138U showed a self-cleavage of 0.15.
In the case of U23C U52A A107G, the self-cleavage is reported as 1.93.
Work on U9C A50G A138U yielded a self-cleavage of 1.28.
Variant A2U A31U U73C has a self-cleavage of 0.47.
With A42U U104C A142G the self-cleavage was 1.34.
A2G U47A U87A showed a self-cleavage of 0.21.
For G35A U62C U119C, the self-cleavage was 0.1.
Work on C38U A43G A138G A142G yielded a self-cleavage of 1.93.
For G25A U81C U91A A92G, the self-cleavage was 0.
A2G U47C A67U A92U A117U A140G U143A showed a self-cleavage of 0.71.
Variant A59G U100C A129G has a self-cleavage of 0.
For U29C G93A U100C U104A, the self-cleavage was 0.11.
U5C G40A U46C A138G gave a self-cleavage of 1.34.
In the case of U47C A65G U73C, the self-cleavage is reported as 0.
With C37U A57U A59U A107G the self-cleavage was 0.04.
Work on A67U U96A A107U U143C yielded a self-cleavage of 0.03.
A59G U132C A141C showed a self-cleavage of 0.
For U9C A64U A65G A69G G97A A140G, the self-cleavage was 0.13.
For C28G U85A A141G, the self-cleavage was 0.08.
With U47C U62A A64U U132C the self-cleavage was 0.09.
A50C U132A A141G showed a self-cleavage of 1.42.
Work on A42G A43G A59U A107G C120U yielded a self-cleavage of 1.4.
U9G U12C U23C U73C U112G C113U C128U showed a self-cleavage of 0.
U1C A6U U85C showed a self-cleavage of 0.21.
Work on C3A U26C U47C A57G U115C yielded a self-cleavage of 1.53.
Variant U5C U39C A57U U87A U109C has a self-cleavage of 0.2.
With U14C C63U A121G the self-cleavage was 0.4.
U91C U100C A142G showed a self-cleavage of 0.66.
In the case of U20A A24G A94G U134C, the self-cleavage is reported as 1.2.
In the case of C17U G32A G35C U62C U100C U112A U134A, the self-cleavage is reported as 0.
U45A A67G A121G gave a self-cleavage of 0.18.
Work on G11A U108A U112A yielded a self-cleavage of 1.95.
Variant U12C U52G U132C has a self-cleavage of 2.25.
Variant U81C U85A U119C U143A has a self-cleavage of 0.34.
Variant C16A A92U U130C A141G has a self-cleavage of 0.35.
Work on U39C A69U U130C yielded a self-cleavage of 0.14.
In the case of G32A C51A U96C, the self-cleavage is reported as 0.17.
For A30G A69G A140G, the self-cleavage was 0.23.
For U15A U47C G49A G70A G72U U91C, the self-cleavage was 0.05.
With U14C U39C U52A A65G the self-cleavage was 0.04.
U12C A24G G36A A50U A65G gave a self-cleavage of 0.56.
For U46A A67G G122A, the self-cleavage was 0.04.
Variant U26A U85A U112C U115C U130C has a self-cleavage of 0.
Work on U12G C95A C111U U143C yielded a self-cleavage of 0.08.
Work on U47A U73C G122C yielded a self-cleavage of 1.77.
U39A A50U U132C A140G showed a self-cleavage of 1.42.
U5C A117C A121G gave a self-cleavage of 2.47.
In the case of U12C U14C U20C A65G A69C G80A, the self-cleavage is reported as 0.17.
U47C G55U C84U U134C gave a self-cleavage of 0.05.
Variant U9A U12C A57U A64U has a self-cleavage of 0.38.
A59U U62A A140G showed a self-cleavage of 0.
C37A U45C A107G G139A showed a self-cleavage of 1.06.
With G74A A94G U130C the self-cleavage was 0.12.
A50G U96A U108C gave a self-cleavage of 0.05.
U62C A79U U85C showed a self-cleavage of 0.06.
G10A U108C G127A gave a self-cleavage of 1.55.
Variant U13C A94U U102C A140G has a self-cleavage of 0.89.
With A79U A107G G125U the self-cleavage was 2.46.
U15C U45C U85C U115A gave a self-cleavage of 0.16.
With U47A U109C A124G the self-cleavage was 0.73.
For U1C A77G U87A U104C A138G, the self-cleavage was 0.1.
In the case of A2G G7A G8U A22G A67G, the self-cleavage is reported as 0.
With U47C U81C U130C the self-cleavage was 0.84.
A64G G89U U143A showed a self-cleavage of 0.03.
With U1A U9A U12C A57U the self-cleavage was 0.11.
For U14C U45C G49U U130C, the self-cleavage was 1.33.
Variant G48A A78G A121G has a self-cleavage of 2.22.
Work on G8U A30G G35U yielded a self-cleavage of 1.02.
In the case of U12A U46C U81C U143C, the self-cleavage is reported as 1.44.
With A6G U62C G80A U112A A138G the self-cleavage was 0.17.
Work on U1C A57G U62A U104C C113A yielded a self-cleavage of 0.11.
A67G G82A U108C gave a self-cleavage of 0.57.
With A64G U81C U108C the self-cleavage was 1.2.
Work on U9A U15C G41U yielded a self-cleavage of 0.82.
Variant G34A U96G C146U has a self-cleavage of 0.05.
With U62C U96C U132C the self-cleavage was 0.08.
Variant U46C G48A A50G U132C has a self-cleavage of 1.09.
Work on A30G U73A A117U yielded a self-cleavage of 1.43.
For U13A C71U A140G, the self-cleavage was 0.54.
U26C U46A U62C C113U gave a self-cleavage of 0.08.
U45C A59G G127U gave a self-cleavage of 0.08.
Work on C19U G49U A59G yielded a self-cleavage of 0.
U62C G86A U109C A141U showed a self-cleavage of 0.03.
Variant U15C A92G U134C has a self-cleavage of 0.08.
In the case of A2U A69G U134G, the self-cleavage is reported as 0.17.
U47C U81C U96A C101U gave a self-cleavage of 0.07.
Work on A64U U112C G137A yielded a self-cleavage of 0.34.
Work on U47A U85C G88A A141G yielded a self-cleavage of 0.02.
U14C U81A A140G showed a self-cleavage of 1.07.
With A31U G74A A94G G137A U143C the self-cleavage was 0.46.
In the case of U15A C17G U46A A124G, the self-cleavage is reported as 0.39.
In the case of U45C C61U A121G, the self-cleavage is reported as 0.02.
For U29C A31U U104A, the self-cleavage was 0.21.
Work on A42U A59G U112C yielded a self-cleavage of 0.12.
With U14C A77U A94U the self-cleavage was 0.33.
Work on A30G G40A U81A C90U yielded a self-cleavage of 0.07.
G21A U91C U134C gave a self-cleavage of 0.36.
Variant A31G A50G A107G has a self-cleavage of 0.92.
Variant U13A A42G A69U U112A has a self-cleavage of 0.08.
U26C A69G A117G showed a self-cleavage of 0.
With G36A A69G A121U the self-cleavage was 0.
For A67G G86A U100C, the self-cleavage was 0.03.
With U39C U62A U91C the self-cleavage was 0.18.
For U9A U13C C101U U104C, the self-cleavage was 1.14.
U47C A57G U109A showed a self-cleavage of 0.84.
For A57U U73A G137A, the self-cleavage was 0.05.
For U1A U13C U20C A43G U109C, the self-cleavage was 0.75.
In the case of U85G U87G A136G, the self-cleavage is reported as 0.39.
Variant A43U C61U A69G A77G U143C has a self-cleavage of 0.6.
Variant U13A G32C U119C G126U has a self-cleavage of 1.29.
In the case of A24G A57U U81C A142G, the self-cleavage is reported as 1.15.
Work on A69C U87A U102C yielded a self-cleavage of 0.06.
